Laboratory results as given in patent publication US20200079850A1 (SUTRO BIOPHARMA, published 2020).
Values belong to the binder of their own block, whether it stands above or below them.

Target: T1, hPD1 (Acro Biosystems), SPR analyte (human, UniProt Q15116 part only)
T1 construct: also called human PD1 kinetics
Experiment: SPR (Biacore), antibody captured by anti-Fc, hPD1 as analyte, 25 C
Experimental: Anti-Fc polyclonal antibodies were immobilized onto a CMS chip (GE Life Sciences) using amine coupling chemistry (from Amine Coupling Kit, GE Life Sciences). The immobilization steps were carried out at a flow rate of 25 μl/min in 1×HBS-EP+buffer (GE Life Sciences; 10× Stock diluted before use). The sensor surfaces were activated for 7 min with a mixture of NHS (0.05 M) and EDC (0.2 M). The Anti-Fc antibodies were injected over all 4 flow cells at a concentration of 25 ug/ml in 10 mM sodium acetate, pH 4.5, for 7 min. Ethanolamine (1 M, pH 8.5) was injected for 7 min to block any remaining activated groups. An average of 12,000 response units (RU) of capture antibody was immobilized on each flow cell.
Kinetic binding experiments were performed at 25° C. using 1×HBS-EP+buffer. Test and control antibodies were injected over the anti-Fc surface at concentrations of 5-10 μg/mL for 12 seconds at a flow rate of 10 μl/min on flow cells 2, 3 and 4, followed by a buffer wash for 30 seconds at the same flow rate. Kinetic characterization of antibody samples was carried out with a dilution series of antigen and 1 injection of 0 nM antigen. After capturing ligand (antibody) on the anti-Fc surface, the analyte (hPD1 or hLAG3, Acro Biosystems, Newark, Del.) was bound at 100, 25, 6.25 and 0 nM for 180 seconds, followed by a 450 second dissociation phase at a flow rate of 50 μl/min. Between each ligand capture and analyte binding cycle, regeneration was carried out using 2 injections of 10 mM Glycine pH 2.0 for 30 seconds at 30 μL/min, followed by a 30 second buffer wash step.
The data was fit with the Biacore T200 Evaluation software, using a 1:1 Langmuir binding model. KD (affinity, nM) was determined as a ratio of the kinetic rate constants calculated from the fits of the association and dissociation phases.

T1 sequence (Q15116 25-167 limits assumed): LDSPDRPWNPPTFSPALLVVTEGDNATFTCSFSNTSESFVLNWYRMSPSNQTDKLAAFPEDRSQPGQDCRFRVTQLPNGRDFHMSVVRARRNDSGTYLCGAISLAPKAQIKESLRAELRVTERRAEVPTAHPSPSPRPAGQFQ

B1: Construct N: 1353-G10 R28T/P30D/H31S zwB × 1449-G09.2 Fab zwA (bispecific antibody, human IgG1, kappa)
scFv: EVQLVQSGAEVKKPGASVKVSCKASGYTFDSYGISWVRQAPGQGLEWMGWISAYNGNTNYAQKLQGRVTMTTDTSTNTAYMELRSLRSDDTAVYYCARDVDYGTGSGYWGQGTLVTVSSGGGGSGGGGSGGGGSSYELTQPPSVSVSPGQTARITCSGDALPKQYAYWYQQKPGQAPVMVIYKDTERPSGIPERFSGSSSGTKVTLTISGVQAEDEADYYCQSADNSITYRVFGGGTKVTVLAAGSDQ[no letters for human IgG1 Fc with changes]
heavy: MQVQLVESGGGVVQPGRSLRLSCAASGFTFSSYGMHWVRQAPGKGLEWVAVIWYDGSYKYYADSVKGRFTISRDNSKNTLYLQMNSLRAEDTAVYYCAREEAPENWDYALDVWGQGTTVTVSSASTKGPSVFPLAPSSKSTSGGTAALGCLVKDYFPEPVTVSWNSGALTSGVHTFPAVLQSSGLYSLSSVVTVPSSSLGTQTYICNVNHKPSNTKVDKKVEPKSCDKTHTCPPCPAPELLGGPSVFLFPPKPKDTLMISRTPEVTCVVVDVSHEDPEVKFNWYVDGVEVHNAKTKPREEQYNSTYRVVSVLTVLHQDWLNGKEYKCKVSNKALPAPIEKTISKAKGQPREPQVYVYPPSREEMTKNQVSLTCLVKGFYPSDIAVEWESNGQPENNYKTTPPVLDSDGSFALVSKLTVDKSRWQQGNVFSCSVMHEALHNHYTQKSLSLSPGK
light: [no letters for about 100 residues][no letters for about 120 residues]
notes: I assembled the PD-1 scFvFc chain from the named parts
Kd: 4.01 nM
kon: 1.38e+06 M⁻¹ s⁻¹

B2: Construct K: a1353-G10 R28T/P30T/H31S zwB × 1449-G09.2 Fab zwA (bispecific antibody, human IgG1, kappa)
scFv: EVQLVQSGAEVKKPGASVKVSCKASGYTFTSYGISWVRQAPGQGLEWMGWISAYNGNTNYAQKLQGRVTMTTDTSTNTAYMELRSLRSDDTAVYYCARDVDYGTGSGYWGQGTLVTVSSGGGGSGGGGSGGGGSSYELTQPPSVSVSPGQTARITCSGDALPKQYAYWYQQKPGQAPVMVIYKDTERPSGIPERFSGSSSGTKVTLTISGVQAEDEADYYCQSADNSITYRVFGGGTKVTVLAAGSDQ[no letters for human IgG1 Fc with changes]
heavy: B1 heavy
light: [no letters for about 100 residues][no letters for about 120 residues]
Kd: 5.3 nM
koff: 0.00724 s⁻¹
kon: 1.37e+06 M⁻¹ s⁻¹

B5: Construct L: 1353-G10 R28D/P30T/H31S zwB × 1449-G09.2 Fab zwA (bispecific antibody, human IgG1, kappa)
scFv: EVQLVQSGAEVKKPGASVKVSCKASGYDFTSYGISWVRQAPGQGLEWMGWISAYNGNTNYAQKLQGRVTMTTDTSTNTAYMELRSLRSDDTAVYYCARDVDYGTGSGYWGQGTLVTVSSGGGGSGGGGSGGGGSSYELTQPPSVSVSPGQTARITCSGDALPKQYAYWYQQKPGQAPVMVIYKDTERPSGIPERFSGSSSGTKVTLTISGVQAEDEADYYCQSADNSITYRVFGGGTKVTVLAAGSDQ[no letters for human IgG1 Fc with changes]
heavy: B1 heavy
light: [no letters for about 100 residues][no letters for about 120 residues]
Kd: 5.18 nM
koff: 0.00777 s⁻¹
kon: 1.5e+06 M⁻¹ s⁻¹

B7: Construct Q: 1353-G10 R28D/H31D zwB × 1449-G09.2 Fab zwA (bispecific antibody, human IgG1, kappa)
scFv: EVQLVQSGAEVKKPGASVKVSCKASGYDFPDYGISWVRQAPGQGLEWMGWISAYNGNTNYAQKLQGRVTMTTDTSTNTAYMELRSLRSDDTAVYYCARDVDYGTGSGYWGQGTLVTVSSGGGGSGGGGSGGGGSSYELTQPPSVSVSPGQTARITCSGDALPKQYAYWYQQKPGQAPVMVIYKDTERPSGIPERFSGSSSGTKVTLTISGVQAEDEADYYCQSADNSITYRVFGGGTKVTVLAAGSDQ[no letters for human IgG1 Fc with changes]
heavy: B1 heavy
light: [no letters for about 100 residues][no letters for about 120 residues]
Kd: 4.32 nM
koff: 0.0067 s⁻¹
kon: 1.55e+06 M⁻¹ s⁻¹

B8: Construct M: 1353-G10 R28T/P30T/H31D zwB × 1449-G09.2 Fab zwA (bispecific antibody, human IgG1, kappa)
scFv: EVQLVQSGAEVKKPGASVKVSCKASGYTFTDYGISWVRQAPGQGLEWMGWISAYNGNTNYAQKLQGRVTMTTDTSTNTAYMELRSLRSDDTAVYYCARDVDYGTGSGYWGQGTLVTVSSGGGGSGGGGSGGGGSSYELTQPPSVSVSPGQTARITCSGDALPKQYAYWYQQKPGQAPVMVIYKDTERPSGIPERFSGSSSGTKVTLTISGVQAEDEADYYCQSADNSITYRVFGGGTKVTVLAAGSDQ[no letters for human IgG1 Fc with changes]
heavy: B1 heavy
light: [no letters for about 100 residues][no letters for about 120 residues]
Kd: 4.91 nM
koff: 0.0102 s⁻¹
kon: 2.07e+06 M⁻¹ s⁻¹

Further binders by falling Kd, results first:

Kd: 4.44 nM
koff: 0.00748 s⁻¹
kon: 1.68e+06 M⁻¹ s⁻¹
B4: Construct O: 1353-G10 R28T/H31D zwB × 1449-G09.2 Fab zwA (bispecific antibody, human IgG1, kappa)
scFv: EVQLVQSGAEVKKPGASVKVSCKASGYTFPDYGISWVRQAPGQGLEWMGWISAYNGNTNYAQKLQGRVTMTTDTSTNTAYMELRSLRSDDTAVYYCARDVDYGTGSGYWGQGTLVTVSSGGGGSGGGGSGGGGSSYELTQPPSVSVSPGQTARITCSGDALPKQYAYWYQQKPGQAPVMVIYKDTERPSGIPERFSGSSSGTKVTLTISGVQAEDEADYYCQSADNSITYRVFGGGTKVTVLAAGSDQ[no letters for human IgG1 Fc with changes]
heavy: B1 heavy
light: [no letters for about 100 residues][no letters for about 120 residues]

Kd: 1.19 nM
koff: 0.00109 s⁻¹
B6: Construct J: aPD1 1353-G10 R28T/P30D zwB × aLAG3 1449-G09.2 Fab zwA (bispecific antibody, human IgG1, kappa)
scFv: EVQLVQSGAEVKKPGASVKVSCKASGYTFDHYGISWVRQAPGQGLEWMGWISAYNGNTNYAQKLQGRVTMTTDTSTNTAYMELRSLRSDDTAVYYCARDVDYGTGSGYWGQGTLVTVSSGGGGSGGGGSGGGGSSYELTQPPSVSVSPGQTARITCSGDALPKQYAYWYQQKPGQAPVMVIYKDTERPSGIPERFSGSSSGTKVTLTISGVQAEDEADYYCQSADNSITYRVFGGGTKVTVLAAGSDQ[no letters for human IgG1 Fc with changes]
heavy: B1 heavy
light: [no letters for about 100 residues][no letters for about 120 residues]

Kd: 1.02 nM
koff: 0.001 s⁻¹
kon: 985000 M⁻¹ s⁻¹
B3: Construct P: 1353-G10 R28D/P30D zwB × 1449-G09.2 Fab zwA (bispecific antibody, human IgG1, kappa)
scFv: EVQLVQSGAEVKKPGASVKVSCKASGYDFDHYGISWVRQAPGQGLEWMGWISAYNGNTNYAQKLQGRVTMTTDTSTNTAYMELRSLRSDDTAVYYCARDVDYGTGSGYWGQGTLVTVSSGGGGSGGGGSGGGGSSYELTQPPSVSVSPGQTARITCSGDALPKQYAYWYQQKPGQAPVMVIYKDTERPSGIPERFSGSSSGTKVTLTISGVQAEDEADYYCQSADNSITYRVFGGGTKVTVLAAGSDQ[no letters for human IgG1 Fc with changes]
heavy: B1 heavy
light: [no letters for about 100 residues][no letters for about 120 residues]
